The antibiotic and cytotoxicity screens of Wong et al. (2023)
The list shows a part of the results.

Key:
HSkMC = human skeletal muscle cells; assay: cytotoxicity call (relative viability < 0.9); details: 10 µM
HepG2 = assay: cytotoxicity call (relative viability < 0.9); details: 10 µM
S. aureus RN4220 = assay: growth inhibition call (relative growth <= 0.2); details: 50 µM

Row | SMILES | cytotoxicity call (HSkMC) | cytotoxicity call (HepG2) | growth inhibition call (S. aureus RN4220)
1 | C[C@H]1CCCCO[C@H](CN(C)C(=O)Nc2cccc3ccccc23)[C@@H](C)CN([C@@H](C)CO)C(=O)c2cc(NC(=O)Nc3ccccc3)ccc2O1 | inactive | inactive | inactive
2 | Cc1noc(C)c1S(=O)(=O)N(C)C[C@@H]1Oc2ccc(NS(C)(=O)=O)cc2C(=O)N([C@@H](C)CO)C[C@@H]1C | inactive | inactive | inactive
3 | CSc1ncccc1C(N)=O | inactive | inactive | inactive
4 | COc1ccc(Sc2ccc(N(C(=O)c3ccccc3Cl)C(=O)c3ccccc3Cl)cc2C#N)cc1 | inactive | active | inactive
5 | Cn1cnc(CCNC(=O)C[C@H]2CC[C@@H]3[C@H](COC[C@H](O)CN3C(=O)Nc3ccc(C(F)(F)F)cc3)O2)c1 | inactive | inactive | active
6 | C[C@H]1CN([C@@H](C)CO)C(=O)c2cccc(NC(=O)c3ccc(-c4nccs4)cc3)c2O[C@H]1CN(C)Cc1ccc(Cl)c(Cl)c1 | inactive | inactive | inactive
7 | C[C@H](CO)N1C[C@H](C)[C@@H](CN(C)Cc2ccc(Oc3ccccc3)cc2)Oc2ccc(NC(=O)CCC(F)(F)F)cc2CC1=O | inactive | active | inactive
8 | C[C@@H]1CN([C@H](C)CO)C(=O)c2cc(NC(=O)Nc3cccc4ccccc34)ccc2O[C@H]1CN(C)Cc1ccc(C(F)(F)F)cc1 | inactive | inactive | inactive
9 | C[C@@H]1CN([C@H](C)CO)C(=O)c2cc(NC(=O)Cc3ccccc3)ccc2O[C@@H](C)CCCCO[C@@H]1CN(C)C(=O)c1ccccc1 | inactive | inactive | inactive
10 | C[C@H]1CN([C@@H](C)CO)C(=O)c2cc(NC(=O)Cn3cnnn3)ccc2O[C@H]1CN(C)Cc1ccccc1 | inactive | inactive | inactive
11 | COc1ccc(S(=O)(=O)Nc2ccc3c(c2)C(=O)N([C@H](C)CO)C[C@H](C)[C@@H](CN(C)C(=O)Nc2cccc4ccccc24)OCCCC[C@@H](C)O3)cc1 | inactive | inactive | inactive
12 | C[C@@H]1CN([C@H](C)CO)C(=O)Cc2cc(NC(=O)Cn3cnnn3)ccc2O[C@@H]1CN(C)Cc1ccncc1 | inactive | inactive | inactive
13 | C[C@@H]1CCCCO[C@@H](CN(C)Cc2ccc(Cl)c(Cl)c2)[C@H](C)CN([C@@H](C)CO)C(=O)c2cc(NC(=O)Nc3ccc4c(c3)OCO4)ccc2O1 | inactive | inactive | inactive
14 | COc1ccc2c3c([nH]c2c1)[C@@H](CO)N(Cc1ccc(cc1)Cl)C[C@]13CN(CCc2ccccc2)C1 | active | active | active
15 | C[C@H]1O[C@@H](O[C@@H]2[C@@H](OC(=O)/C=C/c3ccc(O)c(O)c3)[C@H](CO)O[C@H](OCCc3ccc(O)c(O)c3)[C@@H]2O[C@H]2OC[C@@H](O)[C@@H](O)[C@@H]2O)[C@@H](O)[C@@H](O)[C@@H]1O | inactive | inactive | inactive
16 | C[C@@H]1CN([C@@H](C)CO)C(=O)c2cc(NS(=O)(=O)c3cccs3)ccc2O[C@@H](C)CCCCO[C@@H]1CN(C)C(=O)Nc1ccc(C(F)(F)F)cc1 | inactive | inactive | inactive
17 | C[C@@H]1CN([C@H](C)CO)C(=O)c2cccc(NC(=O)C3CC3)c2O[C@H]1CN(C)C(=O)NC1CCCCC1 | inactive | inactive | inactive
18 | CCCNC(=O)N1C[C@]2(CN(C2)S(=O)(=O)c2ccc(cc2)OC)c2c(n(c3cc(ccc23)OC)C)[C@@H]1CO | inactive | inactive | inactive
19 | CCC(=O)N(C)C[C@H]1Oc2ncc(C#C[C@H](C)O)cc2C(=O)N([C@H](C)CO)C[C@@H]1C | inactive | inactive | inactive
20 | CS(=O)(=O)CCOC(=O)C1=CC(c2ccc(CO)cc2)=C[C@@H](C2CC2)N(Cc2cc3c(cc2Br)OCO3)C=C1C(=O)OCCS(C)(=O)=O | inactive | inactive | inactive
21 | C[C@@H]1CN([C@H](C)CO)C(=O)c2cc(C#Cc3cccnc3)cnc2O[C@@H]1CN(C)S(=O)(=O)c1ccccc1F | inactive | inactive | inactive
22 | Nc1ccn([C@@H]2O[C@H](CO)C[C@H]2O)c(=O)n1 | inactive | inactive | inactive
23 | C[C@@H]1CN([C@@H](C)CO)C(=O)c2cc(NC(=O)CCCCCC(=O)Nc3ccccc3N)ccc2O[C@H]1CN(C)S(=O)(=O)c1cn(C)cn1 | inactive | inactive | inactive
24 | Cc1ccc(S(=O)(=O)N(C)C[C@H]2Oc3ccc(NS(=O)(=O)c4ccc(F)cc4)cc3CC(=O)N([C@@H](C)CO)C[C@H]2C)cc1 | inactive | inactive | inactive
25 | C[C@@H]1CN([C@H](C)CO)C(=O)c2cc(C#CC3CCCC3)cnc2O[C@H]1CN(C)C(=O)Cc1ccccn1 | inactive | inactive | inactive
26 | O=C(Cc1ccccn1)NCC[C@@H]1CC[C@H](NC(=O)CN2CCOCC2)[C@@H](CO)O1 | inactive | inactive | inactive
27 | CO[C@H]1CN(C)C(=O)c2ccc(NS(C)(=O)=O)cc2OC[C@@H](C)N(C(=O)C2CCCCC2)C[C@@H]1C | inactive | inactive | inactive
28 | C[C@@H]1CN([C@H](C)CO)C(=O)c2cccc(NC(=O)C3CC3)c2O[C@@H]1CN(C)S(=O)(=O)c1ccc(Cl)cc1 | inactive | inactive | inactive

Row | SMILES | cytotoxicity call (HSkMC) | cytotoxicity call (HepG2) | growth inhibition call (S. aureus RN4220)
29 | CCn1cc(C(=O)O)c(=O)c2cnc(N3CCNCC3)nc21 | inactive | inactive | inactive
30 | C[C@@H]1CN([C@H](C)CO)S(=O)(=O)c2ccc(C#C[C@@H](C)O)cc2O[C@@H]1CN(C)C(=O)c1ccccc1 | inactive | inactive | inactive
31 | Nc1nncn1C(=O)c1ccccc1F | inactive | inactive | inactive
32 | C[C@@H]1CN([C@@H](C)CO)C(=O)c2cc(NC(=O)CCN3CCOCC3)ccc2O[C@@H]1CN(C)C(=O)Nc1ccccc1 | inactive | inactive | inactive
33 | O=C(CN1CCOCC1)N[C@H]1CC[C@H](CCNC(=O)C2CCCCC2)O[C@H]1CO | inactive | inactive | inactive
34 | O=c1ncccn1[C@H]1O[C@H](CO)[C@@H](O)[C@@H]1O | inactive | inactive | inactive
35 | C[C@H](CO)N1C[C@H](C)[C@@H](CN(C)Cc2ccc(C(=O)Nc3ccccc3N)cc2)Oc2ccc(NC(=O)Nc3ccc(F)cc3)cc2CC1=O | inactive | inactive | inactive
36 | Cc1ccccc1S(=O)(=O)N1C[C@@H](O)COC[C@@H]2O[C@H](CC(=O)N3CCN(C)CC3)CC[C@H]21 | inactive | inactive | inactive
37 | C[C@@H]1CN([C@H](C)CO)C(=O)c2cc(NC(=O)Nc3ccc(C(F)(F)F)cc3)ccc2O[C@H]1CN(C)S(=O)(=O)c1ccc(F)cc1 | active | active | inactive
38 | C[C@H](CO)N1C[C@H](C)[C@H](CN(C)S(=O)(=O)c2cccs2)Oc2ncc(C#Cc3cccc(F)c3)cc2C1=O | inactive | inactive | inactive
39 | COc1cccc(NC(=O)N[C@@H]2CC[C@H](CC(=O)N3CCN(C)CC3)O[C@@H]2CO)c1 | inactive | inactive | inactive
40 | C[C@@H]1CN([C@@H](C)CO)C(=O)c2cc(NC(=O)Nc3ccc(C(F)(F)F)cc3)ccc2O[C@@H](C)CCCCO[C@H]1CN(C)C(=O)CCCN(C)C | inactive | inactive | inactive
41 | c1ccc(COCc2ccccc2)cc1 | inactive | inactive | inactive
42 | COc1ccc(S(=O)(=O)Nc2cccc3c2O[C@H](CN(C)S(=O)(=O)c2ccccc2)[C@H](C)CN([C@@H](C)CO)C3=O)cc1 | inactive | inactive | inactive
43 | COc1ccc(NC(=O)N(C)C[C@H]2OCCCC[C@H](C)Oc3ccc(NC(=O)c4ccccc4)cc3C(=O)N([C@H](C)CO)C[C@@H]2C)cc1 | inactive | inactive | inactive
44 | COc1cccc(CNC(=O)c2cc3c(c(-c4cccc(-c5ccncc5)c4)n2)[C@@H](CCO)N([S@](=O)C(C)(C)C)C3)c1 | inactive | inactive | inactive
45 | C[C@@H]1CCCCO[C@@H](CN(C)S(=O)(=O)c2cccs2)[C@H](C)CN([C@@H](C)CO)C(=O)c2cc(NC(=O)Cc3ccccc3)ccc2O1 | inactive | inactive | inactive
46 | C[C@@H]1CN([C@@H](C)CO)C(=O)c2cccc(NC(=O)C3CCOCC3)c2O[C@@H]1CN(C)C(=O)NC1CCCCC1 | inactive | inactive | inactive
47 | C[C@H](NC(=O)C[C@@H]1C=C[C@@H](NC(=O)CN2CCOCC2)[C@@H](CO)O1)c1ccccc1 | inactive | inactive | inactive
48 | CN1C2CCC1CC(OC(=O)c1c[nH]c3ccccc13)C2.Cl (stereo not given) | inactive | inactive | inactive
49 | C[C@@H]1CN([C@@H](C)CO)C(=O)c2cc(NC(=O)Cc3ccccc3)ccc2O[C@@H](C)CCCCO[C@@H]1CN(C)S(=O)(=O)c1cccs1 | inactive | inactive | inactive
50 | CC(C)NC(=O)Nc1ccc2c(c1)C(=O)N([C@@H](C)CO)C[C@@H](C)[C@H](CN(C)C(=O)Nc1ccc(C(F)(F)F)cc1)OCCCC[C@H](C)O2 | inactive | inactive | inactive
51 | COc1cccc(OC)c1C(=O)NC1C(=O)N2C1SC(C)(C)C2C(=O)[O-].[Na+] (stereo not given) | inactive | inactive | active
52 | O=C(Nc1nccs1)[C@H]1[C@H](CO)[C@H]2Cn3c(cccc3=O)[C@H]2N1C(=O)C1CC1 | inactive | inactive | inactive
53 | Cc1noc(C)c1S(=O)(=O)N(C)C[C@@H]1Oc2ccc(NS(=O)(=O)c3ccc(F)cc3)cc2CC(=O)N([C@H](C)CO)C[C@@H]1C | inactive | inactive | inactive
54 | CCCNC(=O)C[C@@H]1CC[C@@H]2[C@H](COc3ccc(NS(=O)(=O)c4ccccc4C)cc3C(=O)N2C)O1 | inactive | inactive | inactive
55 | CC(C)NC(=O)N(C)C[C@H]1Oc2ccc(NC(=O)NC3CCCCC3)cc2CC(=O)N([C@@H](C)CO)C[C@H]1C | inactive | inactive | inactive
